Assay results taken from patent US20220411511A1 (STCUBE, published 2022).

T1: recombinant human CD80-Fc chimera protein (R&D Systems) (human, UniProt P33681 35-242)
T1 construct: Bought reagent; not shown: Fc part
T1 sequence (looked up): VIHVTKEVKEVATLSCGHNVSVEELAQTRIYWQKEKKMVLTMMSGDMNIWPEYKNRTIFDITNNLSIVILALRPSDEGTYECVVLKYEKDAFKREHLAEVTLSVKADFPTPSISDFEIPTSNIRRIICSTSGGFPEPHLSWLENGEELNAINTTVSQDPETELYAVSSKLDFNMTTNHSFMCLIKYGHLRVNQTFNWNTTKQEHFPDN

T2: recombinant human CD86-Fc chimera protein (R&D Systems) (human, UniProt P42081 26-245, limits assumed)
T2 construct: Bought reagent; also called recombinant human CD86-Fc protein; not shown: Fc part
T2 sequence (looked up): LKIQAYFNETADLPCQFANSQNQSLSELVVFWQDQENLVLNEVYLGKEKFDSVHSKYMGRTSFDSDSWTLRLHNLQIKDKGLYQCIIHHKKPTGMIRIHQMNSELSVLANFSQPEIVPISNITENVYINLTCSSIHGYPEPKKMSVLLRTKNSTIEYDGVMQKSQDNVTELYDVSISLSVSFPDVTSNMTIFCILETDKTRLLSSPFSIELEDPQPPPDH


Key:
[1] = biological target: T1, recombinant human CD80-Fc chimera …; experiment: live-cell imaging (IncuCyte) of 293T cells expressing CTLA-4 WT with CD80-Fc and anti-human Alexa Fluor 488 conjugate
Source text: (§1) The secondary antibodies used were anti-human Alexa Fluor 488 dye conjugate (Life Technologies). The fluorescence intensity of Alexa Fluor 488 dye was then monitored using a real-time microscope IncuCyte (Essen BioScience, Ann Arbor, Mich., USA).

[2] = biological target: T2, recombinant human CD86-Fc chimera …; experiment: live-cell imaging (IncuCyte) of 293T cells expressing CTLA-4 WT with CD86-Fc and anti-human Alexa Fluor 488 conjugate
Source text: as §1

[3] = biological target: T1, recombinant human CD80-Fc chimera …; experiment: live-cell imaging (IncuCyte) of 293T cells expressing CTLA-4 2NQ with CD80-Fc and anti-human Alexa Fluor 488 conjugate
Source text: as §1

[4] = biological target: T2, recombinant human CD86-Fc chimera …; experiment: live-cell imaging (IncuCyte) of 293T cells expressing CTLA-4 2NQ with CD86-Fc and anti-human Alexa Fluor 488 conjugate
Source text: as §1

| binding result [1] | binding result [2] | binding result [3] | binding result [4] | Binder |
| --- | --- | --- | --- | --- |
| binds | binds |  |  | CTLA-4 WT expressed on 293T cells (receptor, N-linked glycosylation at N113 and N145, also called wild type CTLA-4; Flag-tagged CTLA-4 WT) not shown |
|  |  | no binding | no binding | CTLA-4 2NQ (non-glycosylated form) expressed in 293T cells (receptor, also called CTLA-4 2NQ mutant; unglycosylated CTLA-4) not shown |
